Measurements as given in PMC4242493.
Some of the results follow. The list includes weakly bound sequences.

target: MaxL homodimer (UniProt P61244); experiment: universal protein-binding microarray (PBM); details: PBS-based mixture, 10 nM His-tagged protein dimer, 2% milk, 200 ng/uL BSA, 50 ng/uL salmon testes DNA, 0.02% TX-100; detection with Alexa 488 anti-His …; high values mean tight binding; most listed sequences are background and not binding sites; double strand, one strand shown
UniProt P61244, sequence (P61244 whole entry): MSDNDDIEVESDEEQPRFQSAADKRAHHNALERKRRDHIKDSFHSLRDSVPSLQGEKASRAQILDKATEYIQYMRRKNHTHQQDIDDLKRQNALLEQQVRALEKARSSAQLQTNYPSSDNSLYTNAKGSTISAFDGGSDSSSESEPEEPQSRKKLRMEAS

Sequence	binding signal (normalized occupancy)
CTTGTGGC	0.081
AACCGGGA	0.0762
CGGCCATA	0.074
GGTGGCTA	0.072
GGATGTCA	0.0814
ATTTATCA	0.0801
CAAACTCG	0.069
CCTTTTCG	0.0698
GCGTAGGA	0.0742
CATGATAC	0.0935
AGAGGCTG	0.074
ACCATGCG	0.136
GAAGCTAA	0.0683
AATTCGTC	0.0683
GGATCGTA	0.0821
GGGTGACA	0.0798
AAAACCGC	0.07
AAAGGTGC	0.0746
CTTTTCAA	0.0698
TAGACACA	0.0829
GCAACAAA	0.0681
CTTCAAAG	0.0734
ATCCTACG	0.0775
CATGCGCA	0.125
CCTGCTAG	0.0714

Sequence	binding signal (normalized occupancy)
AGCTGCCG	0.0674
ACCCTCAT	0.0827
GCGCTTAC	0.0729
AAGGTCAG	0.0723
ATTCATGG	0.0747
ACAGCGGT	0.071
AGTGAGTA	0.0749
GAAACGCA	0.0732
AACCTGTG	0.078
CCGAGTCA	0.0728
ACATCAAG	0.075
ACCGCAAA	0.0677
CTAGACCA	0.0761
CAAGATAA	0.0846
ATTGTTGG	0.0807
CCAACTAG	0.0726
CAATAAGG	0.0731
ACGTAAGT	0.073
CGTCGGAA	0.074
CGTGCAAG	0.0859
TCGCCCAA	0.0688
TTATTCAA	0.0762
AGCATACC	0.0787
AATGTATA	0.0899
GAAGGTCA	0.0721

Sequence	binding signal (normalized occupancy)
GACGATCA	0.0739
ACGTTCTC	0.0772
AGGGGTCA	0.081
AGCCCAAA	0.0722
CCAGTTCC	0.0668
GTGATCCA	0.0739
AAATGACA	0.0804
GTAAGCCA	0.0729
TATAATCA	0.0782
CGCTAAAC	0.0709
AGATATCC	0.0789
GCGCAAAA	0.0674
CAGCGAGC	0.0704
ATATGGGA	0.0957
CCAAATTC	0.0705
CGCATATC	0.0867
TACCATCA	0.0766
AGGCTTGA	0.0715
AAATTTGT	0.068
GGCCCCTA	0.0764
CAACATCC	0.0782
AAGGGAAG	0.0757
ACAACGCG	0.077
ACACCCAA	0.0744
CCACCGTA	0.0773

Sequence	binding signal (normalized occupancy)
GTGGTAAA	0.0779
AAAAAGGG	0.0721
AACCAAAG	0.068
AAAGCAGA	0.074
AAGGGTTC	0.0722
TATTAACA	0.0776
CTAACTCA	0.0776
GTCAGCCA	0.0796
CCCGACTC	0.0757
CGGACTAA	0.0716
ATCAGAGC	0.0778
CGTGCTGC	0.09
CATAGGGG	0.085
GGTGCGCA	0.0744
ATACTGCG	0.0787
AACCAAGA	0.0767
CGGACCAG	0.0689
CTTCGTAC	0.0714
ACACATCA	0.0839
CGCGAGTC	0.0762
CCACACAA	0.0772
TAAAGTAA	0.0794
CCCAAGAA	0.0714
GAGCACGA	0.0838
TTCGTCAA	0.0799

Sequence	binding signal (normalized occupancy)
CAATGCCA	0.079
CTAGTTGA	0.0764
ACTCTCCG	0.0686
ACGTCTCA	0.0761
CTCGTCTC	0.0777
AGTTGCGC	0.0719
CTATCCAG	0.0727
CGGGTGTC	0.0748
ATACGCCG	0.0712
GAGGCTGC	0.069
CCGGCCGA	0.0662
CCTTACGA	0.0735
CTTGTCCA	0.0792
ACATTATA	0.0868
ACCACCGG	0.0736
ATTCTGTG	0.0779
CTTAATTA	0.0757
CTAATGGA	0.0729
CAGTAGAG	0.0718
AGAATTTA	0.0706
GCTTGACA	0.0727
ACAGTTCC	0.0675
ATATTGCC	0.0846
TCCCGTAA	0.0783
GGAGCGAC	0.0728

Sequence	binding signal (normalized occupancy)
AAAGTTAA	0.0758
CGATTCAC	0.0799
CTCACACC	0.0818
TGGCACCA	0.0743
CCCCGGCC	0.0723
ATACGGTG	0.0797
AGGATTAG	0.0745
CAATAAAG	0.0733
CAACGTTG	0.083
CAATCGCG	0.0715
AAGGGCCC	0.0709
ACAGATTC	0.0776
GCCTCAGC	0.0723
CCTGAAGA	0.0682
GCATGTCA	0.0972
GCCTGCCC	0.0714
CGTACGTA	0.0802
CAGCAATC	0.0708
CGGTGGAC	0.0705
CTCCGTTC	0.0678
CGACAGAC	0.0744
ACACCCGC	0.0772
ACCTTTGG	0.068
GTAAATGA	0.0763
CCATGCGA	0.1

Sequence	binding signal (normalized occupancy)
CGCACCAC	0.0841
AATGCGCG	0.0754
GCGCCATA	0.0749
ACAGAGAG	0.0712
CCAACGAG	0.0824
CTCACAGA	0.071
CTTAAGCC	0.0672
AAGGTCTG	0.074
GCAGATGA	0.0781
ACTGGAGA	0.0692
ATACAAGC	0.0777
ATATAAAA	0.0719
CCAACGTA	0.0759
CAGTCACA	0.081
AGTAAGGG	0.0786
AACGAATG	0.0784
CAACTGGG	0.0705
CCTATCCG	0.0805
GTTACAAA	0.0761
GAACCAGC	0.0718
GTTGTTAA	0.0782
GTATATCA	0.0787
AAGGATGC	0.0729
GCACCACC	0.0789
CCCCACGC	0.0979

Sequence	binding signal (normalized occupancy)
ACACGGTA	0.0853
ACGTTTTA	0.0808
TTAACTAA	0.0752
GCATGGCA	0.102
TCGGGGCA	0.0799
CGAATGCC	0.0759
ACATACGC	0.0812
TAATCCAA	0.0842
CGCTATGA	0.0755
GCCATTAA	0.074
CCTTGCAA	0.0714
GCGTCGTA	0.0758
ACTCGCGG	0.0757
AGGAGCGA	0.0703
CTCTAGCA	0.0773
ATAGAGAC	0.0767
GACAGCTC	0.0685
AACCAGAA	0.0757
AGGAGCTA	0.0748
AGACATTA	0.0819
ACTTATTA	0.0825
CGATCACG	0.0845
ATACCCTG	0.0741
CTATGTCA	0.0757
TAGGGGGA	0.0765

Sequence	binding signal (normalized occupancy)
CCTCCGTA	0.0769
AAAAAGAC	0.0722
AATGTGAG	0.0853
TCAGACCA	0.0809
CATTGCGG	0.0847
ATACGTGA	0.081
ATGGTTCA	0.085
CGGATGCA	0.0758
GGCGATGA	0.0788
AGACACGA	0.0855
CGTACCTA	0.0757
CCGTACCA	0.0721
ATAAATTG	0.0786
ACGTCACT	0.0708
GACGTGCA	0.0797
AAATATAG	0.0837
CCTTAAAA	0.0718
GGTGAGGA	0.0737
GGGATAAC	0.0824
AGTAGTAC	0.0803
CCTGCGCC	0.0696
GGAATTCC	0.0713
GTAGCTTA	0.0706
GGGCCTGA	0.0698
CTTCGTCA	0.0783

Sequence	binding signal (normalized occupancy)
GCCTACAA	0.075
TCAGGGGA	0.078
GCGATAAC	0.0707
ACGTCTAG	0.0746
CGTCGTTC	0.073
ACAAACAG	0.0755
CCTAAAGA	0.0749
AATACGAG	0.0786
AGTATGCC	0.0744
TATCGTGA	0.0827
ATGATAGA	0.081
AACACCTT	0.0733
CACCTGAA	0.0797
CGAGAATA	0.0809
TCAGGCGA	0.0727
ACCTTCTA	0.0743
ACCGCTGA	0.0726
ACCCTGTG	0.0803
TATTTGAA	0.0755
ATTTGCTG	0.0711
ACACGGTG	0.0873
ATGCCTAA	0.0774
CTGTAGTA	0.0854
CCCAATTC	0.0786
GTTATCCA	0.0826

Sequence	binding signal (normalized occupancy)
AAGTAGAG	0.0757
ACGAGAAC	0.0879
GAGGGACC	0.0721
CTTCCTTA	0.0844
CGCGTGTA	0.123
ATTATACG	0.0765
AAAACCGG	0.0676
AGGCAACC	0.0731
CTTCAGTC	0.0722
CGCACGAG	0.107
CGAACTAG	0.0685
ACCTCCCG	0.0756
GCTCGGAA	0.0677
CTTCCCAC	0.0765
GCTCGACA	0.0649
AGCCACCT	0.0768
CCACCCCC	0.0922
GGGGACAA	0.077
GGTTCAAA	0.0691
GATTTAAA	0.0717
CAAATGTG	0.0879
ATCACCAA	0.0777
CGGACACC	0.0749
GTACCCTA	0.0755
GACTCTAA	0.0823

Sequence	binding signal (normalized occupancy)
ACGGCCGA	0.0666
CCATGAAA	0.08
AGGTAACA	0.0823
ATGGACGC	0.0695
TATGTCCA	0.0796
GTGCCCTA	0.0772
CCATACCG	0.0846
CAGTAGTA	0.0753
CCTCATCA	0.0833
AGCACCTG	0.0844
CAAAGAGG	0.0732
AAAGCAGC	0.0688
ATCGTATC	0.0783
GCATCTAA	0.0781
CATTCAGG	0.0758
CCCCGCGC	0.0778
TAAAATCA	0.0744
AAATACCA	0.078
CGAGTACA	0.0727
ACTTCTCA	0.0786
ACGGATGG	0.078
CTCCAAAA	0.0786
TCCTGAAA	0.0737
AACCGTCA	0.0747
TAACGAGA	0.0745

Sequence	binding signal (normalized occupancy)
ACCTTTTG	0.0756
GAATCTGC	0.075
CTACTAAG	0.0755
CCACTTAC	0.077
CAACTAGG	0.0717
CCCCAGCA	0.0815
ATTCAGGG	0.0745
AGACCACT	0.074
AGGTAACC	0.0749
AAAAGATT	0.0766
TCCGGTCA	0.0722
AAAATAGA	0.0755
AGACGAGC	0.0621
TCTGAGCA	0.073
CCTCACTA	0.08
CCCAACCC	0.0752
CAGGTGAC	0.0878
TGGCGGAA	0.0725
GAATAGCC	0.0688
ACACGAGT	0.0979
CGCGCCGA	0.0721
AGACTACA	0.0772
AACATCAA	0.0812
GCCAGTCC	0.0721
CTTCGGGC	0.0721

Sequence	binding signal (normalized occupancy)
GCGCGAAA	0.0771
TCCTGCAA	0.0703
CAACATGG	0.0932
TTGTAAAA	0.0743
AAAAATAG	0.0772
ACTTCTAA	0.0705
ACCCGGGT	0.0716
CTAAGCAA	0.0729
GTATAGCA	0.0777
ATATTTAC	0.0787
CCCCTTCC	0.0746
CCGCTTCA	0.067
ATCTGAAA	0.0735
ACATTGAG	0.0809
CTTATCAC	0.075
AGCAAGTG	0.0753
AACTAATC	0.074
ATAGGGTC	0.078
ACACGATC	0.0822
